Measurements published in PubChem BioAssay AID2546 (National Center for Advancing Translational Sciences (NCATS), 2010).
About 11,000 (3.5%) of roughly 310,000 compounds were called active. The shares of active, inactive and inconclusive entries below differ from those in the screen. The call rests on the fitted dose curve; in most records, active means well fitted inhibition curve with a large enough effect; inconclusive means small, poorly fitted or top-dose-only effect, or effect the other way; inactive means flat fitted curve, though single readings scatter. No potency is given beside an inconclusive call; the fits are too rough.

experiment: VP16 counterscreen qHTS for inhibitors of ROR gamma transcriptional activity; details: Drosophila S2 Gal4-VP16 UAS-luciferase, luminescence, 20 h; activity, negative = inhibition: at 53.6 µM (top of the series);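 further: Gal4-VP16 expression switched on by copper sulfate through the metallothionein promoter; nearly all actives have a fitted effect of over 50% in size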
On the % scale 0 is the no-effect control and ±100 the full control effect; potency means the concentration at half of the fitted maximal effect; tags describe the fitted curve by direction and shape.

SMILES | activity, negative = inhibition | Potency
COc1cc(OC)cc(C(=O)NNC(=O)c2ccc(S(=O)(=O)N(C)c3ccccc3OC)cc2)c1 | inactive: -9.04% | –
O=C(NNC(=O)c1nc(Cl)ccc1Cl)c1ccc(F)cc1 | – | inconclusive [inhibitor, single point]
c1cc(Nc2cccc3nccnc23)c2nccnc2c1 | – | active: 1.12 µM
Cc1cc(C)c2c(N)c(S(=O)(=O)c3ccccc3)sc2n1 | – | inconclusive [inhibitor, single point]
c1ccc(-c2cc(CSc3nc4ccccc4[nH]3)on2)cc1 | – | inconclusive [inhibitor, single point]
Cn1c(NCCCO)nc2c(c1=O)C1(CCCCC1)Cc1ccccc1-2 | – | inconclusive [inhibitor, single point]
CCC1(C)N=C(N)Nc2nc3cc(C)c(C)cc3n21 (stereo not drawn) | inactive: -1.96% | –
O=C(Nc1ccc(Cl)c(Cl)c1)OCc1cnc(Cl)s1 | – | inconclusive [inhibitor, partial curve]
COc1ccc(NC(=S)N2CCC(Cc3ccccc3)CC2)cc1OC | – | active: 15.8 µM
CCC/C=C(\CCC)C(NC(=O)c1cccs1)c1ccc(C(F)(F)F)cc1 (stereo not drawn) | inactive: -8.08% | –
CC(Oc1ccc(Cl)cc1Cl)C(=O)Nc1ccncc1 (stereo not drawn) | – | active: 20 µM
O=C1Nc2ccccc2C12Nc1ccccc1S2 (stereo not drawn) | – | inconclusive [inhibitor, single point]
COc1ccc(S(=O)(=O)Nc2ccc(F)cc2)c(C)c1C | – | inconclusive [inhibitor, single point]
CCOC(=O)c1cc(C#N)c(=S)[nH]c1C | inactive: -14.3% | –
CCOc1ccc(S(=O)(=O)Nc2cccc(C)c2)c2cccnc12 | inactive: 3.45% | –
CCOc1ccc(N=c2scc(-c3ccc(OC)cc3)n2CCO)cc1 | – | inconclusive [inhibitor, full curve]
O=C(CCCn1c(=S)[nH]c2cc3c(cc2c1=O)OCO3)N1CCN(c2ccc(F)cc2)CC1 | – | inconclusive [inhibitor, single point]
O=C(Cc1ccc(Br)cc1)c1ccc(O)cc1O | inactive: -13.2% | –
O=C(N/N=C/c1cc(Br)ccc1O)c1cccc(N2CCCC2=O)c1 | – | active: 5.62 µM
O=C(N=Nc1c(O)n(C2OC(=O)c3ccccc32)c2ccccc12)c1ccc(O)cc1 (stereo not drawn) | – | active: 2.82 µM
O=C(Nc1cccc(F)c1)c1cccnc1NCCc1ccccc1 | – | inconclusive [inhibitor, single point]
Cc1cccc(C(=O)OCC(=O)NC(C)CCc2ccccc2)c1 (stereo not drawn) | inactive: -2.98% | –
Cc1cc(-c2nc(C)c(C(=O)NN)s2)no1 | – | inconclusive [inhibitor, single point]
COc1ccc([N+](=O)[O-])cc1NC(=O)c1ccccc1SC | inactive: -22.8% | –
COc1ccc(-n2nc(C(=O)NCc3ccco3)c3c4ccccc4n(C)c3c2=O)cc1 | – | inconclusive [inhibitor, single point]
Cc1cccc(C(=O)N2CCCC(N3CCN(c4ccccc4)CC3)C2)n1 (stereo not drawn) | inactive: -5.11% | –

SMILES | activity, negative = inhibition | Potency
Cc1cccc(Nc2nc(N)nc(CCl)n2)c1 | – | active: 10 µM
Cc1cc(C)n(-c2nc3ccccc3c(=O)n2OCC(N)=O)n1 | – | active: 20 µM
CC(C)c1ccc(OCC(=O)NNC(=S)NC(=O)c2ccco2)c(Br)c1 | – | active: 6.31 µM
COc1ccc(CNC(=O)C2CCC(CNS(=O)(=O)c3cccc4nsnc34)CC2)cc1 (stereo not drawn) | inactive: 2.92% | –
CN1c2cc3c(cc2N=C(c2ccc(C(=O)O)cc2)c2ccccc21)C(C)(C)CCC3(C)C | – | inconclusive [inhibitor, single point]
COc1cc(S(=O)(=O)NCc2ccncc2)ccc1Br | – | active: 7.08 µM
C/C(=N\N1C(=O)c2ccccc2NC1c1ccco1)c1ccccc1O (stereo not drawn) | – | active: 2.24 µM
CSc1ccc(-c2nc(CSCC(=O)NCCCN3CCCC3=O)c(C)o2)cc1 | – | inconclusive [inhibitor, full curve]
Cc1ccc(-c2nc3ccccc3[nH]2)cc1N | – | inconclusive [inhibitor, single point]
COc1ccc(C(=O)NNC(=S)NC(=O)c2ccccc2)cc1 | – | active: 8.91 µM
CNC(=S)Nc1ccc([N+](=O)[O-])c(C)c1 | – | inconclusive [activator, single point]
CC(C)(C)c1ccc(C(=O)N/N=C/c2ccccn2)cc1 | – | active: 4.47 µM
O=C(Oc1ccccc1)c1ccc2nsnc2c1 | inactive: 29% | –
O=C(Nc1ccc(S(=O)(=O)Nc2cnc3ccccc3n2)cc1)c1cccc(OC(F)F)c1 | inactive: 1.88% | –
Cc1cccc(CSC(Nc2ccc(F)cc2)=C(C#N)C#N)c1 | – | inconclusive [inhibitor, single point]
O=C(CSc1nnc(SCc2ccccc2)s1)N/N=C/C=C/c1ccccc1[N+](=O)[O-] | – | inconclusive [inhibitor, partial curve]
CC(=O)Oc1ccc(N2C(=O)C3C4C=CC(CO)(O4)C3C2=O)cc1 (stereo not drawn) | – | inconclusive [inhibitor, single point]
COc1ccc(C(=O)Nc2nc3ccccc3s2)cc1OC | – | inconclusive [inhibitor, single point]
COc1ccccc1-c1noc(-c2ccccc2C(=O)N2CCOCC2)n1 | inactive: 0.0398% | –
CC(C)(C)c1ccc(C(=O)Cn2nc(C(=O)O)c3ccccc3c2=O)cc1 | – | inconclusive [inhibitor, single point]
Cc1csc(NC(=O)Nc2cccc(Cl)c2)n1 | – | inconclusive [activator, full curve, poor fit]
O=C(O)Cc1cn(Cc2ccc(F)cc2)c2ccccc12 | inactive: 3.61% | –
COc1ccc2[nH]c(=O)c3c(c2c1)OC(C)(C)C=C3 | – | active: 25.1 µM
CN(C)c1ccc(C(=O)Nc2nc3c(s2)CCCC3)cc1 | – | active: 11.2 µM
Nc1[nH]c(N=NC(=O)c2ccccc2O)c2ccccc12 | – | inconclusive [inhibitor, single point]
N/C(=N\N=C\c1ccc(O)c(O)c1)c1nonc1N | – | inconclusive [inhibitor, single point]

SMILES | activity, negative = inhibition | Potency
O=C(c1cccs1)N(Cc1ccc(Cl)cc1)C1CCS(=O)(=O)C1 (stereo not drawn) | – | inconclusive [inhibitor, single point]
O=C(O)c1ccc(N2CC3CC(C2)c2cccc(=O)n2C3)c(NC(=S)Nc2ccc(Cl)cc2Cl)c1 (stereo not drawn) | inactive: -6.63% | –
Cc1cc(/C=C2\SC(=S)NC2=O)c(C)n1-c1ccccc1 | – | inconclusive [inhibitor, single point]
O=C(NC(=S)Nc1ccc(N2CCN(C(=O)c3ccccc3)CC2)cc1)c1cccs1 | – | inconclusive [inhibitor, single point]
Cc1[nH]c2ccccc2c1/C=N/NC(=S)NCc1ccccc1 | – | inconclusive [inhibitor, single point]
Cc1ccc(OCC(=O)NC(C)c2ccc(Cl)c(Cl)c2)c([N+](=O)[O-])n1 (stereo not drawn) | – | inconclusive [inhibitor, single point]
N#CC1=C(N)OC2=C(CC/C2=C\c2ccccc2Cl)C1c1ccccc1Cl (stereo not drawn) | – | inconclusive [inhibitor, single point]
O=C(c1cnc2n(c1=O)CCS2)N(c1ccccc1)C1CCCCC1 | – | inconclusive [inhibitor, single point]
O=S(=O)(c1ccc(Br)cc1)N1CCC(c2nc3ccccc3[nH]2)CC1 | – | inconclusive [inhibitor, single point]
CN(CC(=O)Nc1ccc(Cl)c(S(=O)(=O)N(C)C)c1)Cc1ccccc1 | – | inconclusive [inhibitor, single point]
CCOC(=O)Nc1nc(-c2ccc(Cl)cc2Cl)cs1 | inactive: 10.2% | –
O=C(N/N=C/c1cccs1)c1ccc(-n2cccc2)cc1 | – | active: 11.2 µM
COc1ccc2nc3c(cc2c1)Cc1ccccc1-3 | – | active: 2.51 µM
COc1ccc(OC)c(S(=O)(=O)N(C)CC(=O)Nc2ccc3c(c2)OCO3)c1 | inactive: 4.1% | –
Cc1ccc(/C=N/NC(=O)c2cccc(S(=O)(=O)Nc3ccccc3Cl)c2)o1 | – | inconclusive [inhibitor, single point]
CCOc1ccc(Cc2c(Cl)nc(SC)nc2N(C)C)cc1 | – | inconclusive [activator, single point]
Cc1cc(C)c2nc(C(F)(F)F)nc(N3CCN(C(=O)c4ccco4)CC3)c2c1 | – | active: 0.891 µM
COC(=O)c1sc(NC(=O)c2csc3c2CCCC3)nc1C | – | inconclusive [inhibitor, single point]
COc1ccc(NC(=O)C2(c3ccc(NC(=O)c4ccc(OC)c(OC)c4)cc3)CCCC2)cc1 | – | inconclusive [inhibitor, single point]
CC1=C/C(=N\OS(=O)(=O)c2ccccc2)C=CC1=O | – | active: 1.12 µM
CC1CN(Cc2c(O)ccc3c2oc(=O)c2ccccc23)CC(C)O1 (stereo not drawn) | inactive: -1.25% | –
O=[N+]([O-])c1cc(-c2nc(-c3ccncc3)no2)ccc1Cl | – | inconclusive [inhibitor, single point]
CCn1c(NCc2cc(OC)ccc2OC)nc2ccccc21 | inactive: 24% | –
COc1ccc(C(=O)Nc2ccc3nc(N4CCCCC4)cc(C)c3c2)cc1OC | – | inconclusive [inhibitor, single point]
CCn1c(SCC(=O)Nc2cccnc2Cl)nnc1-c1ccccc1 | inactive: 9.37% | –
C/C(=N\NC(=O)c1nnn(-c2nonc2N)c1CN(C)c1ccccc1)c1ccccc1O | – | active: 3.98 µM
